We go through 38 compounds from the supplement of paper PMC9446081.

Structures are written as SMILES. In all, about 39,000 compounds went through this assay and about 220 (0.56%) showed activity. Some of the results follow.
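Note: static incubation at 37 °C against the wild-type strain, values averaged over two biological replicates.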

In the test the test system is Escherichia coli K-12 BW25113. The test can be described thus: relative growth (OD600 normalised to plate interquartile mean) (fraction); higher = less growth inhibition, active = 0.2 or less. The note with it: 50 µM; LB; incubation time: overnight (16-24 h).
In the case of `C[C@@H](NC(=O)C[C@@H]1C=C[C@H](NC(=O)CN2CCOCC2)[C@H](CO)O1)c1ccccc1`, the relative growth is inactive: 1.02.

Turning to `Cc1noc(C)c1S(=O)(=O)Nc1ccc2c(c1)C(=O)N([C@@H](C)CO)C[C@H](C)[C@@H](CN(C)Cc1ccncc1)O2`, the relative growth was inactive: 0.952.

On to `Cc1noc(C)c1S(=O)(=O)Nc1ccc2c(c1)C(=O)N([C@H](C)CO)C[C@H](C)[C@@H](CN(C)C(=O)Nc1ccc(F)cc1)OCCCC[C@H](C)O2`, for which the relative growth is inactive: 0.982.

With `C[C@H]1CN([C@@H](C)CO)C(=O)Cc2cc(NC(=O)Nc3cccc4ccccc34)ccc2O[C@H]1CN(C)C(=O)Nc1ccc2c(c1)OCO2`, the relative growth is inactive: 0.99.

In the case of `Cc1ccc(S(=O)(=O)Nc2ccc3c(c2)C(=O)N([C@@H](C)CO)C[C@@H](C)[C@@H](CN(C)S(=O)(=O)c2ccc(F)cc2)OCCCC[C@@H](C)O3)cc1`, the relative growth was inactive: 1.

On to `C[C@@H]1CCCCO[C@@H](CN(C)Cc2ccccc2)[C@H](C)CN([C@H](C)CO)C(=O)c2cc(NC(=O)c3ccncc3)ccc2O1`, for which the relative growth was inactive: 0.948.

On to `O=C1O[C@@H](c2ccccc2)[C@@H](c2ccccc2)N2[C@@H](c3ccc(OCCO)cc3)[C@]3(C(=O)Nc4ccc(C#CC5(O)CCCCCC5)cc43)[C@@H](C(=O)Nc3nc4ccccc4s3)[C@H]12`, for which the relative growth is inactive: 1.

For the compound `COc1ccc2c(c1)OC(C)(C)C[C@@H]2N`, the relative growth is inactive: 0.985.

With `CCC1OC(=O)C(C)C(OC2CC(C)(OC)C(O)C(C)O2)C(C)C(OC2OC(C)CC(N(C)C)C2O)C(C)(O)CC(C)C(=NOCOCCOC)C(C)C(O)C1(C)O` (stereo not drawn), the relative growth was inactive: 0.613.

With `O=C(C[C@H]1CC[C@H]2NC[C@@H](O)COC[C@@H]2O1)NCCN1CCCC1`, the relative growth was inactive: 1.02.

On to `COc1ccc(S(=O)(=O)Nc2ccc3c(c2)C(=O)N([C@H](C)CO)C[C@@H](C)[C@H](CN(C)C(=O)NC2CCCCC2)OCCCC[C@H](C)O3)cc1`, for which the relative growth is inactive: 0.994.

On to `CC(C)NC(=O)Nc1ccc2c(c1)CC(=O)N([C@@H](C)CO)C[C@@H](C)[C@H](CN(C)S(=O)(=O)c1ccc(Cl)cc1)O2`, for which the relative growth was inactive: 0.997.

As for `C[C@H](CO)N1C[C@H](C)[C@H](CN(C)Cc2ccccc2)Oc2cc(C#CC(C)(C)O)ccc2S1(=O)=O`, the relative growth is inactive: 0.988.

Regarding `Cc1ccc(S(=O)(=O)N(C)C[C@@H]2Oc3ccc(NS(=O)(=O)c4cn(C)cn4)cc3CC(=O)N([C@@H](C)CO)C[C@H]2C)cc1`, the relative growth was inactive: 0.989.

Take `COC(=O)c1ccc(CNC(=N)N)cc1`: the relative growth is inactive: 1.01.

Regarding `N[C@H]1CS(=O)(=O)c2ccccc21`, the relative growth was inactive: 0.927.

For `C[C@H]1CCCCO[C@H](CN(C)Cc2ccc3c(c2)OCO3)[C@@H](C)CN([C@@H](C)CO)C(=O)c2cc(NC(=O)c3ccccc3)ccc2O1`, the relative growth was inactive: 1.01.

With `Cc1cc(C)n(C(N)=S)n1`, the relative growth was inactive: 0.941.

In the case of `C[C@@H]1CN([C@@H](C)CO)C(=O)c2cc(NC(=O)Nc3cccc4ccccc34)ccc2O[C@@H](C)CCCCO[C@@H]1CN(C)CC1CCCCC1`, the relative growth was inactive: 1.03.

As for `COC(=O)[C@@H](Cc1ccc(-n2cc(COc3ccccc3/C=C(C)/C=C/C(=O)NO)nn2)cc1)N1CC2=CCCC=C[C@@H]2[C@H]1[C@H](O)Cc1ccccc1`, the relative growth is inactive: 0.833.

Turning to `C[C@H]1CN([C@@H](C)CO)C(=O)c2cccc(NC(=O)Nc3ccc(F)cc3)c2O[C@H]1CN(C)C(=O)Nc1cccc2ccccc12`, the relative growth is inactive: 0.992.

As to `Cc1ccc(S(=O)(=O)Nc2ccc3c(c2)CC(=O)N([C@@H](C)CO)C[C@@H](C)[C@@H](CN(C)S(C)(=O)=O)O3)cc1`, the relative growth was inactive: 1.

With `CO[C@@H]1CN(C)C(=O)c2ccc(NC(=O)C3CCCC3)cc2OC[C@@H](C)N(C(=O)Nc2ccc(C(F)(F)F)cc2)C[C@H]1C`, the relative growth is inactive: 0.967.

With `CC(=O)N1CCC[C@H](C(=O)O)C1`, the relative growth is inactive: 0.991.

For the compound `C[C@H](CO)N1C[C@H](C)[C@@H](CN(C)S(=O)(=O)c2ccc3ccccc3c2)OCc2cnnn2CCCC1=O`, the relative growth is inactive: 0.985.

`NC[C@@H](O)CC(=O)O`: the relative growth is inactive: 1.

With `Clc1ccc(/C=C/C2=Nc3cccc4cccc(c34)N2)cc1`, the relative growth was inactive: 1.08.

Consider `C[C@@H]1CN([C@H](C)CO)C(=O)c2cc(NS(=O)(=O)c3ccc(Cl)cc3)ccc2O[C@@H]1CN(C)Cc1ccc(Oc2ccccc2)cc1`, for which the relative growth was inactive: 0.96.

Turning to `CC(C)(Oc1ccc(C2CC2(Cl)Cl)cc1)C(=O)O` (stereo not drawn), the relative growth is inactive: 1.06.

For `C[C@H]1CCCCO[C@H](CN(C)C(=O)Nc2ccc3c(c2)OCO3)[C@@H](C)CN([C@@H](C)CO)C(=O)c2cc(NC(=O)Nc3ccc(F)cc3)ccc2O1`, the relative growth was inactive: 1.04.

Regarding `C[C@@H]1CCCCO[C@@H](CN(C)C(=O)Nc2ccc(C(F)(F)F)cc2)[C@H](C)CN([C@H](C)CO)C(=O)c2cc(NC(=O)c3ccccc3)ccc2O1`, the relative growth is inactive: 1.05.

Regarding `COc1ccccc1CNC(=O)C[C@@H]1C[C@@H]2c3cc(NC(=O)Nc4ccc(C(F)(F)F)cc4)ccc3O[C@@H]2[C@H](CO)O1`, the relative growth is inactive: 0.927.

As to `C[C@H]1CN([C@@H](C)CO)C(=O)Cc2cc(NC(=O)CCCCCC(=O)Nc3ccccc3N)ccc2O[C@H]1CN(C)Cc1ccc(Oc2ccccc2)cc1`, the relative growth was inactive: 0.973.

Take `C[C@@H]1CCCCO[C@@H](CN(C)C(=O)CCCN(C)C)[C@H](C)CN([C@H](C)CO)C(=O)c2cc(NC(=O)Nc3ccc(C(F)(F)F)cc3)ccc2O1`: the relative growth is inactive: 0.955.

Regarding `CC(C)NC(=O)N(C)C[C@@H]1Oc2ccc(NC(=O)CCC(F)(F)F)cc2CC(=O)N([C@H](C)CO)C[C@H]1C`, the relative growth is inactive: 1.02.

On to `C[C@@H]1CCCCO[C@H](CN(C)C(=O)CCCN(C)C)[C@H](C)CN([C@H](C)CO)C(=O)c2cc(NS(C)(=O)=O)ccc2O1`, for which the relative growth was inactive: 1.01.

As for `C[C@@H]1CN([C@@H](C)CO)C(=O)c2cccc(NC(=O)C3CC3)c2O[C@H]1CN(C)Cc1ccc(-c2ccccc2)cc1`, the relative growth was inactive: 0.99.

`COc1cccc2c1C(=O)c1c(O)c3c(c(O)c1C2=O)C[C@@](O)(C(C)=O)C[C@@H]3O[C@H]1C[C@H](N)[C@H](O)[C@H](C)O1`: the relative growth was inactive: 1.
